Measured values taken from PubChem BioAssay AID1671193 (National Center for Advancing Translational Sciences (NCATS), 2021).
Hit rate of the full screen: of about 150,000 compounds, about 180 (0.12%) were called active. The shares of active, inactive and inconclusive entries below differ from those in the screen. Calls come from the whole dose curve; as a rule, active = well fitted cell-killing curve with a large enough effect; inconclusive = small, poorly fitted or top-dose-only effect, or effect the other way; inactive = flat fitted curve, though single readings scatter. Potencies of inconclusive entries are doubtful fits and often do not repeat.

Assay: GF-AFC viability counterscreen for inhibitors of alpha-synuclein gene (SNCA) expression; note: nearly all actives have a fitted effect of over 30% in size;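 for activity change, negative = cytotoxicity: 0% = DMSO-treated cells and -100% = medium-only wells without cells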
Settings: HEK-293-SNCA-luc viability, GF-AFC fluorescence, 24 h; activity change, negative = cytotoxicity: at 57.1 µM (top of the series) unless noted
Method in brief: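 HEK-293-SNCA-luc cells (1500/well) plated 24 h, then exposed 24 h to a dilution series; GF-AFC added 30 min at 37C, fluorescence 405/540 nm; normalised to medium-only and DMSO wells, Hill fit.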
Potency is the fitted concentration of half-maximal effect; tags give direction and shape of the fitted curve.

Q: With Cc1ccc([C@@H]2CN(C(=O)c3nc(C)oc3C)C[C@H]2NC(=O)C2CC2)cc1 as the molecule, how does the “activity change, negative = cytotoxicity” value read?
A: Its value is inactive: -3.5%.

Q: With CN1CCN(C(=O)c2cc(-c3cc(Cl)cc(Cl)c3)c3nncn3n2)CC1 as the molecule, how does the activity change, negative = cytotoxicity read?
A: Its activity change, negative = cytotoxicity is inactive: -20.8% [at 12.5 µM].

Q: For CCOC(=O)CC(NC(=O)Cn1nnc(-c2ccccc2F)n1)c1ccccc1Cl (stereo not drawn), which Potency is on record?
A: The Potency was inconclusive: 39.8 µM [cytotoxic, single point].

Q: Which Potency does the source give for CO[C@H]1C[C@@H]2CC[C@@H](C)[C@@](O)(O2)C(=O)C(=O)N2CCCC[C@@H]2C(=O)O[C@H]([C@H](C)C[C@@H]2CC[C@H](OCCO)[C@H](OC)C2)CC(=O)[C@H](C)C=C(C)[C@@H](O)[C@@H](OC)C(=O)[C@H](C)C[C@H](C)C=CC=CC=C1C here?
A: Its Potency is inconclusive: 1.71 µM [cytotoxic, full curve, poor fit].

Q: With CC1=C[C@@H](CN2CCN(C)CC2)[C@H](C(C)C)C[C@H]1Cc1nnc(-c2ccc(C)cc2)o1 as the molecule, how does the Potency read?
A: Its Potency is inconclusive: 22.4 µM [cytotoxic, partial curve].

Q: For COCCN1CCCCCC(O)c2cc(C(=O)NCCc3c[nH]c4ccccc34)ccc21 (stereo not drawn), which Potency is on record?
A: The Potency was inconclusive: 39.8 µM [cytotoxic, single point].

Q: Which Potency does the source give for O=C1c2c(nc(COc3ccc(F)cc3)n2Cc2ccccc2)NCCN1Cc1ccccc1 here?
A: The Potency was inconclusive: 28.2 µM [cytotoxic, single point].

Q: Which “activity change, negative = cytotoxicity” value does the source give for Cc1[nH]cnc1CN1CCNc2cc(Nc3ccccc3)ncc2C1 here?
A: Its value is inactive: -18.7% [at 87.6 µM].

Q: With COc1cccc(-c2cc(C3CCN(C(=O)NC4CCCC4)CC3)[nH]n2)c1 as the molecule, how does the “activity change, negative = cytotoxicity” value read?
A: The value was inactive: -11.7%.

Q: Which “activity change, negative = cytotoxicity” value does the source give for COc1ccc(NC(=O)N2CCC(CCc3nc(C4CCOCC4)no3)CC2)cc1F here?
A: The value was inactive: -8.06%.

Q: With COc1ccc(CCNC(=O)c2ccc(Cn3c(=O)c4ccccc4n(CC(=O)C(C)(C)C)c3=O)cc2)cc1OC as the molecule, how does the Potency read?
A: Its Potency is inconclusive: 3.16 µM [cytotoxic, full curve, poor fit].

Q: Which Potency does the source give for O=C(O)C(O)Cc1ccc(O)c(O)c1 (stereo not drawn) here?
A: The Potency was inconclusive: 34.1 µM [cytotoxic, partial curve, poor fit].

Q: Which “activity change, negative = cytotoxicity” value does the source give for COC[C@@H]1[C@H](C(=O)Nc2ccc(OC)nc2)CCC(=O)N1C here?
A: Its value is inactive: -1.09%.

Q: With CCC(CC)C(=O)N[C@H]1C[C@@H](Cc2cc(COc3ccccc3)on2)C1(C)C as the molecule, how does the Potency read?
A: Its Potency is inconclusive: 56.2 µM [cytotoxic, single point].

Q: With Cc1ccc(NC(=O)CN2CC3CC(C2)[C@H]2CCCC(=O)N2C3)cc1 (stereo partly drawn) as the molecule, how does the “activity change, negative = cytotoxicity” value read?
A: Its value is inactive: -2.58%.

Q: For CCc1ccc(C2=CC(c3c(F)cccc3Cl)n3c(nc4ccccc43)N2)cc1 (stereo not drawn), which Potency is on record?
A: Its Potency is inconclusive: 39.8 µM [rising, single point].

Q: Which Potency does the source give for CCc1ccc(OCCn2c(C3CC(=O)N(Cc4ccc(F)cc4)C3)nc3ccccc32)cc1 (stereo not drawn) here?
A: Its Potency is inconclusive: 20 µM [cytotoxic, single point].

Q: Which Potency does the source give for CN(C)c1cccc(C(=O)N2CCC(n3cc(-c4nc(-c5ccccc5)no4)nn3)CC2)c1 here?
A: The Potency was inconclusive: 3.16 µM [cytotoxic, full curve].

Q: With CCOC(=O)Cc1ccc(NC(=O)N(Cc2ccc(CC)cc2)Cc2cn[nH]c2-c2ccc(OC)cc2)cc1 as the molecule, how does the Potency read?
A: Its Potency is inconclusive: 25.1 µM [cytotoxic, single point].

Q: Which “activity change, negative = cytotoxicity” value does the source give for CC1(CCCCc2ccccc2)COc2ccc(C(=O)NCc3cnccn3)cc2N1 (stereo not drawn) here?
A: Its value is inactive: 5.7% [at 87.6 µM].

Q: For CN1CCN(c2ncnc3ccc(-c4cccnc4)cc23)CC1, which Potency is on record?
A: The Potency was inconclusive: 22.4 µM [cytotoxic, single point].

Q: For COc1ccc(C(=O)NC2CCN(c3cc(-c4cccs4)[nH]n3)C2)c(C)c1 (stereo not drawn), which Potency is on record?
A: The Potency was inconclusive: 8.91 µM [cytotoxic, partial curve].

Q: For Cc1ccc(-n2c(COCC(=O)O)nc3cccnc32)cc1, which “activity change, negative = cytotoxicity” value is on record?
A: Its value is inactive: 6.37%.

Q: With CCCn1cc(-c2ccnc(NC3CCN(Cc4cccnc4)CC3)n2)c(C)n1 as the molecule, how does the Potency read?
A: The Potency was inconclusive: 8.91 µM [cytotoxic, full curve].

Q: With Cc1ccc(C(=O)N2CCC(Cc3nc(-c4ccccc4)no3)CC2)s1 as the molecule, how does the “activity change, negative = cytotoxicity” value read?
A: The value was inactive: -5.17%.

Q: With CCS(=O)(=O)c1ncc(Cl)c(C(=O)NCc2ccc(OC)cc2)n1 as the molecule, how does the Potency read?
A: Its Potency is inconclusive: 31.6 µM [cytotoxic, single point].

Q: With COc1ccc(C(=O)N2CCC(C(NC(=O)c3ccccc3C)C(=O)NC(C)C(C)C)CC2)cc1 (stereo not drawn) as the molecule, how does the Potency read?
A: Its Potency is active: 20 µM.

Q: For CCc1ccc(N2CC(c3noc(-c4ccc(OC)c(F)c4)n3)CC2=O)cc1 (stereo not drawn), which “activity change, negative = cytotoxicity” value is on record?
A: Its value is inactive: 7.51%.

Q: Which “activity change, negative = cytotoxicity” value does the source give for COc1cccc(-c2ccnc(-c3nnc(C)n3Cc3ccccc3)c2)c1 here?
A: Its value is inactive: -5.2% [at 87.6 µM].

Q: Which Potency does the source give for Cc1cccc(N2CCN(C(=O)C3CCN(c4ncnc5c4nc4n5CCCCC4)CC3)CC2C)c1 (stereo not drawn) here?
A: Its Potency is inconclusive: 28.2 µM [cytotoxic, single point].

Q: With COc1ccc(C2=NOC3(CCN(Cc4ccc(F)cc4)C3)C2)cc1 (stereo not drawn) as the molecule, how does the “activity change, negative = cytotoxicity” value read?
A: The value was inactive: -5.58% [at 87.6 µM].

Q: For CCc1ccc(-n2c(=O)c3c4c(sc3n(CC(=O)c3ccc(Br)cc3)c2=O)CCC4)cc1, which Potency is on record?
A: The Potency was inconclusive: 20 µM [rising, partial curve, poor fit].

Q: For Cn1cc(-c2nc3cnc(N4CCOCC4)nc3n(C3CC3)c2=O)c2ccccc21, which Potency is on record?
A: Its Potency is inconclusive: 3.55 µM [rising, partial curve, poor fit].

Q: Which “activity change, negative = cytotoxicity” value does the source give for Clc1cccc(-c2ccc(CN3CCN(C4CCNC4)CC3)o2)c1 (stereo not drawn) here?
A: The value was inactive: 1.22%.

Q: With Cc1nn(-c2ccccc2)c(C)c1[C@@H]1C=C[C@@H](NC(=O)c2ccco2)C1 as the molecule, how does the Potency read?
A: The Potency was inconclusive: 56.2 µM [cytotoxic, partial curve, poor fit].

Q: With CC(C)(C)NC(=O)c1oc2ccccc2c1NC(=O)c1ccccc1F as the molecule, how does the Potency read?
A: The Potency was inconclusive: 5.01 µM [cytotoxic, full curve, poor fit].

Q: With CNc1ccnc(N2CCCC(CO)(Cc3ccc(F)cc3)C2)n1 (stereo not drawn) as the molecule, how does the Potency read?
A: The Potency was inconclusive: 10 µM [cytotoxic, partial curve].

Q: Which Potency does the source give for O=S(=O)(Cc1ccccc1)N[C@H]1CO[C@H]2[C@@H]1OC[C@@H]2Nc1nccc(-c2cccc(F)c2)n1 here?
A: The Potency was inconclusive: 39.8 µM [cytotoxic, single point].

Q: With Cc1ccc(NC(=O)Cn2cc(S(=O)(=O)Cc3ccc(F)cc3)c3ccccc32)cc1Cl as the molecule, how does the Potency read?
A: Its Potency is inconclusive: 39.8 µM [cytotoxic, single point].

Q: For CC(=O)N(C1CC1)C1CCOC2(CCN(C(=O)COc3ccc(C)cc3)CC2)C1 (stereo not drawn), which “activity change, negative = cytotoxicity” value is on record?
A: Its value is inactive: -0.47%.

Q: For COc1ccc(-c2ccc3nnc(CNC(=O)c4cccc5[nH]ccc45)n3n2)cc1, which Potency is on record?
A: Its Potency is inconclusive: 11.2 µM [cytotoxic, partial curve, poor fit].

Q: For COc1ccc(-c2cc(N3CCC(NC(=O)c4ccc(N(C)C)cc4)CC3)n[nH]2)cc1, which Potency is on record?
A: The Potency was inconclusive: 17.8 µM [cytotoxic, single point].

Q: For CCCCc1nc2cc(/C=C/C(=O)NO)ccc2n1CCN(CC)CC, which Potency is on record?
A: Its Potency is inconclusive: 15 µM [cytotoxic, partial curve].

Q: Which Potency does the source give for CC1CN(C(=O)Nc2ccc(C(=O)NCc3ccccc3F)cc2)c2ccccc2S1 (stereo not drawn) here?
A: Its Potency is inconclusive: 35.5 µM [rising, partial curve, poor fit].

Q: Which Potency does the source give for CC1=C[C@@H](CN(C)CCO)[C@H](C(C)C)C[C@H]1Cc1nnc(-c2ccccc2)o1 here?
A: Its Potency is inconclusive: 35.5 µM [cytotoxic, single point].

Q: Which Potency does the source give for O=C(N[C@H]1CCN2C(=O)c3cc(-c4ccccc4F)ccc3NC(=O)[C@@H]2C1)c1ccc(F)c(Cl)c1 here?
A: Its Potency is inconclusive: 35.5 µM [cytotoxic, single point].

Q: With CCOC(=O)c1ccc(N2C(=O)c3n[nH]c(-c4ccco4)c3C2c2ccc(OC)cc2OC)cc1 (stereo not drawn) as the molecule, how does the Potency read?
A: The Potency was inconclusive: 15.8 µM [cytotoxic, partial curve, poor fit].

Q: For O=C(NCC(=O)N1CCOCC1)c1ccc(-c2cnc3ccccc3c2)cc1, which “activity change, negative = cytotoxicity” value is on record?
A: Its value is inactive: -0.292%.

Q: For COc1cncc(CN2C[C@H]3[C@H](C2)[S+](=O)([O-])C(C)(C)C(=O)N3CC2CCOCC2)c1, which Potency is on record?
A: Its Potency is inconclusive: 5.62 µM [rising, partial curve, poor fit].

Q: Which Potency does the source give for c1ccc(Nc2nc(-c3ccoc3)nc3ccccc23)cc1 here?
A: The Potency was inconclusive: 12.6 µM [cytotoxic, partial curve, poor fit].

Q: With O=C(Nc1cc(C(F)(F)F)cc(C(F)(F)F)c1)c1cnc(Cl)nc1C(F)(F)F as the molecule, how does the Potency read?
A: The Potency was inconclusive: 21.2 µM [cytotoxic, single point].

Q: Which “activity change, negative = cytotoxicity” value does the source give for COc1ccc(C(=O)NC2CCN(c3cc(-c4ccc(OC)cc4)[nH]n3)C2)cc1 (stereo not drawn) here?
A: Its value is inactive: -25.1%.

Q: With CCN(CC)C(=O)CC1COc2ccc(C(=O)NCCOC)cc2N1C (stereo not drawn) as the molecule, how does the “activity change, negative = cytotoxicity” value read?
A: The value was inactive: 1.8%.

Q: Which Potency does the source give for Cn1cccc1CN1CCC2(CC1)CNc1ccccc1[S+](=O)([O-])N2 here?
A: The Potency was inconclusive: 39.8 µM [cytotoxic, single point].

Q: Which Potency does the source give for CCC(CC)C(=O)NC[C@@H]1C=C(C)[C@H](Cc2nc3ccc(F)cc3[nH]2)C[C@H]1C(C)C here?
A: Its Potency is inconclusive: 14.1 µM [cytotoxic, partial curve].

Q: With COc1ccc(S(=O)(=O)N2CC(F)(F)C[C@H]2c2nc(C)no2)cc1 as the molecule, how does the Potency read?
A: Its Potency is inconclusive: 7.08 µM [cytotoxic, single point].

Q: With COc1cccc(-c2cccc(C(=O)N3CCN([S+](=O)([O-])c4cccc(C(F)(F)F)c4)CC3)c2)c1 as the molecule, how does the activity change, negative = cytotoxicity read?
A: Its activity change, negative = cytotoxicity is inactive: -5.68% [at 12.5 µM].

Q: With COc1ccccc1C(=O)NCCNC(=O)c1cccc(-c2ncccc2C#N)c1 as the molecule, how does the “activity change, negative = cytotoxicity” value read?
A: The value was inactive: 6.05%.

Q: Which Potency does the source give for CCc1c(C)sc2c1CCN(Cc1ccccc1)C2c1ccccc1 (stereo not drawn) here?
A: The Potency was inconclusive: 20 µM [cytotoxic, single point].

Q: With COc1ccc(C(=O)N2CCC[C@H]2c2nc(-c3ccccc3)no2)cc1 as the molecule, how does the Potency read?
A: Its Potency is inconclusive: 2 µM [cytotoxic, full curve, poor fit].

Q: Which “activity change, negative = cytotoxicity” value does the source give for COc1cccc(CN2CCNC(=O)C2CC(=O)NCc2ccon2)c1OC (stereo not drawn) here?
A: Its value is inactive: 4.88%.

Q: Which Potency does the source give for CCc1csc(CNC2CCC3(CCNCC3)CC2)n1 here?
A: Its Potency is inconclusive: 28.2 µM [cytotoxic, single point].

Q: With Cc1ccc(-c2noc([C@@H]3Cc4nc[nH]c4CN3C(=O)Nc3cccc(F)c3)n2)cc1 as the molecule, how does the Potency read?
A: The Potency was inconclusive: 39.8 µM [cytotoxic, partial curve, poor fit].
